PMC6919601, “Identification of Plasmodium dipeptidyl aminopeptidase allosteric inhibitors by high throughput screening” (PLoS ONE, 2019)
The whole screen tested about 110,000 compounds, of which about 230 (0.21%) showed an effect of 50% or more. Some of the results follow.

biological target: DPAP1 (Plasmodium falciparum, UniProt Q8IIJ9); experiment: primary screen, percent inhibition; read by cleavage of a fluorogenic dipeptide substrate; higher = more effect of the substance; design: species or system P. falciparum D10 trophozoite lysates; single well
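Note: 30 min substrate incubation versus DMSO and 10 µM JCP410 controls.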

DPAP1, sequence (Q8IIJ9 whole entry, looked up): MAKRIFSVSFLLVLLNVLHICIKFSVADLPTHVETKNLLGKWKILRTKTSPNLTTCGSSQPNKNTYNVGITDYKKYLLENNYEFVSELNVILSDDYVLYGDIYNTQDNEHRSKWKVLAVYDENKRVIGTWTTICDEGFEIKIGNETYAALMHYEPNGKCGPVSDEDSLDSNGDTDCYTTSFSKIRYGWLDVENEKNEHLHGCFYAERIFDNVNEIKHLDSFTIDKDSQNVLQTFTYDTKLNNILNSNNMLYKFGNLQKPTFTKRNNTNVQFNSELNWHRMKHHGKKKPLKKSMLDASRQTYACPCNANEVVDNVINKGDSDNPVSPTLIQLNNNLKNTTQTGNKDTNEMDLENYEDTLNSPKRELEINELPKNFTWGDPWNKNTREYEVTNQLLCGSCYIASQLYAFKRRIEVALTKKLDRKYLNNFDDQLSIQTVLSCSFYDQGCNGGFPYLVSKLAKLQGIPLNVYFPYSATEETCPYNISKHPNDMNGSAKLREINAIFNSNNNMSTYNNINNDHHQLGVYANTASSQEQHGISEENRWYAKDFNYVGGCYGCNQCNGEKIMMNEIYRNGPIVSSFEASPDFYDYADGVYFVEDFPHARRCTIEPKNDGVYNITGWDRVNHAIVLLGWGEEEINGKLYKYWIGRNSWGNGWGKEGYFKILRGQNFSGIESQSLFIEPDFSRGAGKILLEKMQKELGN

| SMILES | % Inhibition @ 10 uM |
| --- | --- |
| Cc1cc(C)nc(/N=C(\N)NCCN2CCOCC2)n1 | -9.24% |
| Cc1ccc(-c2cc(C(=O)NCCN(C)C)c3ccccc3n2)cc1C | 1.16% |
| O=C1CCN(CC(=O)c2ccc3cc[nH]c3c2)CC1 | -1.08% |
| CC1CC(=O)c2cnc(Nc3nc(-c4ccccc4)c4ccccc4n3)nc2C1 (centres unmarked) | 1.72% |
| C=C(C)[C@@H]1CC=C(CN(C)CCN(CC)CC)CC1 | -3.27% |
| Cc1cccc(C)c1NC(=O)CN(c1ccccc1F)S(C)(=O)=O | 0.108% |
| COc1cc(OC)cc(C(=O)N2CCN(c3ccc(F)cc3)CC2)c1 | -3.25% |
| CC(C)(C)c1[nH]nc2c1[C@@H](c1ccccc1C(F)(F)F)C(C#N)=C(N)O2 | 2.69% |
| COc1ccc(OCC(=O)NCc2nc(-c3ccc(OC)cc3)no2)cc1 | -2.99% |
| C=CCNc1nc(Cl)nc(N(CC)CC)n1 | 2% |
| Cc1cc(C)nc(NC(=O)COc2cccc(Cl)c2)c1 | -4.39% |
| CN1CCCN(Cc2cc([N+](=O)[O-])ccc2Cl)CC1 | 3.01% |
| Cc1c(C(=O)N2CCN(Cc3ccccc3)CC2)sc2nc3n(c(=O)c12)CCCCC3 | 4.21% |
| COc1ccc2c(c1)CC/C(=C\c1ccsc1)C2=O | 0.189% |
| O=C(NC1CCCCCCC1)c1ccccc1O | -9.57% |
| CCOC(=O)C1=C(N)OC2=C(C(=O)CC(C)(C)C2)C1c1ccc(Cl)cc1 (centres unmarked) | 1.4% |
| CCOC(=O)c1ccc(-n2c(N)c(C#N)c3nc4ccccc4nc32)cc1 | -7.09% |
| CCC(=O)Nc1ccc2[nH]c(C(F)(F)F)nc2c1 | 0.986% |
| CC(=O)N(C)c1ccc(NC(=O)COc2ccccc2C)cc1 | 0.147% |
| C=CCSC1=C(C#N)C(c2sccc2C)CC(=O)N1 (centres unmarked) | -1.08% |
| Nc1c(C(=O)CCC(=O)O)oc2ccc(Cl)cc12 | 3.34% |
| CCCOc1ccc(-c2nc3s/c(=C\c4ccco4)c(=O)n3n2)cc1 | 2.17% |
| O=C(c1ccc2c(c1)OCO2)N1CCN(c2ccc(F)cc2)CC1 | 1.64% |
| COc1ccc(C(C)n2c(C)c3c(C)nnc(C)c3c2C)cc1 (centres unmarked) | 1.91% |
| O=S(=O)(NCc1ccc2c(c1)OCO2)c1ccc(Cl)cc1 | -3.37% |

| SMILES | % Inhibition @ 10 uM |
| --- | --- |
| COc1ccc(NC(=O)CN(c2cc(Cl)cc(Cl)c2)S(=O)(=O)c2ccccc2)cc1OC | 5.66% |
| Cc1ccccc1C(=O)Nc1nc(-c2ccccc2)ns1 | -2.75% |
| Nc1nc(-c2ccc3ccccc3c2)cs1 | -2.2% |
| COc1ccc(S(=O)(=O)NCc2ccc(C(=O)NCc3cccs3)cc2)cc1 | -1.54% |
| O=C(c1cc(-c2ccc3c(c2)OCO3)nc2ccccc12)N1N=C(C(F)F)CC1(O)C(F)F (centres unmarked) | -0.545% |
| COc1ccc(-c2cc(C(=O)NC(Cc3c[nH]c4ccccc34)C(=O)O)c(C)o2)cc1OC (centres unmarked) | -5.38% |
| Cc1ccc(-c2oc3ncnc(N)c3c2-c2ccc(C)cc2)cc1 | -1.33% |
| Cc1oc2cc3oc(=O)c(CCC(=O)O)c(C)c3cc2c1-c1ccccc1 | 0.558% |
| Cc1ccccc1NC(=O)CCCC(=O)Nc1ccccc1C | -2.83% |
| COc1ccc(NC(=O)C2=C(C)NC(=O)NC2c2cccc(OC)c2)cc1 (centres unmarked) | 4.49% |
| COc1ccc2oc(=O)c(-c3nc(-c4ccccc4C)no3)cc2c1 | 1.66% |
| O=C(NCCc1ccccn1)c1nc(-c2ccc3c(c2)OCO3)no1 | -0.0108% |
| CCOC(=O)c1c(C)n(-c2ccc(C)cc2C)c2ccc(O)cc12 | 1.39% |
| Cc1ccc(N(CC(=O)NCc2cccnc2)S(=O)(=O)c2ccc(F)cc2)cc1 | -3.12% |
| CC(NC(=O)C1CCN(c2nnc(N3CCCC3=O)s2)CC1)C12CC3CC(CC(C3)C1)C2 (centres unmarked) | 2.27% |
| CCSc1ncc(Cl)c(C(=O)N(C)Cc2ccccc2)n1 | 2.19% |
| Cc1ccc(C)c(S(=O)(=O)Nc2ccc(C(=O)N3CC(C)CC(C)C3)cc2)c1 (centres unmarked) | -1.06% |
| O=C(NCCc1ccc(Cl)cc1)c1ccc(-n2cnc3cccnc32)cc1 | 1.77% |
| COc1ccc(OC)c(CN2CCN(Cc3ccc(OC)cc3OC)CC2)c1 | 4.87% |
| O=S(=O)(NCc1ccccc1Cl)c1ccc2nc(O)ccc2c1 | 1.36% |
| Cc1ccc(N(C)C)cc1NC(=O)CCC(=O)O | -8.59% |
| Cc1ccc(S(=O)(=O)NCc2ccc(C(=O)NCCCN(Cc3ccccc3)C(C)C)cc2)cc1 | 3.74% |
| C=CCOc1ccc(C2C(C(=O)c3ccc(OCC)c(C)c3)=C(O)C(=O)N2CCCN(C)C)cc1 (centres unmarked) | -0.178% |
| CCOc1ccc(-c2[nH]nc3c2C(c2ccc(OCC)c(OCC)c2)C(C#N)=C(N)O3)c(OCC)c1 (centres unmarked) | 15.1% |
| CCCCSc1c(C(=O)NC)ccc2c1C(=O)c1ccccc1C2=O | -4.35% |
